Counter-ions that a name gives are not always drawn. Among all 1,500 compounds or so, about 30 (2%) showed activity.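 Rule for the calls: active = robust z-score below -2; a few such results were not called.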 This is one part of the list.

The test has as its system optoTopBP1 Flp-In 293 T-REx (HEK293) cells. Briefly: light-induced TopBP1 condensate (nuclear foci) count, plate-normalised robust z-score vs non-control wells; higher = more TopBP1 condensates (negative = condensation inhibitor), active = hit call of the paper. The conditions noted are these: 10 µM; incubation time 2 h.
For the compound `Cc1cc2nc3c(=O)[nH]c(=O)nc-3n(C[C@H](O)[C@H](O)[C@H](O)CO)c2cc1C` [Riboflavine], the “light-induced TopBP1 condensate (z-score)” value is inactive: 1.04.
In the case of `CCCOc1ccc2[nH]c(NC(=O)OC)nc2c1` [Oxibendazol], the “light-induced TopBP1 condensate (z-score)” value was active: -3.01.
To `CN(C)CCOC(c1ccccc1)c1ccccc1.Cn1c(=O)c2[nH]c(Cl)nc2n(C)c1=O` [Dimenhydrinate] belongs inactive: -0.665; to `CN(CCCN1c2ccccc2CCc2ccccc21)CC(=O)c1ccc(Cl)cc1` [Lofepramine], inactive: -2.06.
To `Clc1ccc2c(c1)CCc1cccnc1C2=C1CCNCC1` [Desloratadine] belongs inactive: -1.12; to `O=C1NCC2(CCN(CCc3ccccc3)CC2)O1` [Fenspiride hydrochloride], inactive: 0.804.
As for `CC(=O)O[C@]1(C(C)=O)CC[C@H]2[C@@H]3C=C(Cl)C4=CC(=O)CC[C@]4(C)[C@H]3CC[C@@]21C` [Chlormadinone acetate], the “light-induced TopBP1 condensate (z-score)” value is inactive: -0.442.
With `CCCNC(=O)NS(=O)(=O)c1ccc(Cl)cc1` [Chlorpropamide], the “light-induced TopBP1 condensate (z-score)” value was inactive: 1.05.
Regarding `CCN(CC)C(C)CN1c2ccccc2Sc2ccccc21` (centres undefined) [Ethopropazine hydrochloride], the “light-induced TopBP1 condensate (z-score)” value was inactive: -0.281.
As to `Cc1cc(O)c(C(=O)N[C@@H](C(=O)N[C@@H]2C(=O)N3C(C(=O)O)=C(CSc4nnnn4C)CS[C@H]23)c2ccc(O)cc2)cn1` [Cefpiramide], the “light-induced TopBP1 condensate (z-score)” value was inactive: -0.119.
For `CO[C@H]1/C=C/O[C@@]2(C)Oc3c(C)c(O)c4c(O)c(c5c(nc6cc(C)ccn65)c4c3C2=O)NC(=O)/C(C)=C\C=C\[C@H](C)[C@H](O)[C@@H](C)[C@@H](O)[C@@H](C)[C@H](OC(C)=O)[C@@H]1C` [Rifaximin], the “light-induced TopBP1 condensate (z-score)” value was inactive: 0.13.
As to `O=C1[C@H]2CCCC[C@H]2C(=O)N1CCCCN1CCN(c2nsc3ccccc23)CC1` [Perospirone], the “light-induced TopBP1 condensate (z-score)” value was inactive: -0.904.
For `Clc1cccc(Cl)c1NC1=NCCN1` [Clonidine hydrochloride], the “light-induced TopBP1 condensate (z-score)” value was inactive: -0.77.
In the case of `Nc1nc2c(ncn2COC(CO)CO)c(=O)[nH]1` [Ganciclovir], the “light-induced TopBP1 condensate (z-score)” value was inactive: 0.417.
To `NCCCCCC(=O)O` [Aminocaproic acid] belongs inactive: -0.559; to `CN(C)C(=N)NC(=N)N` [Metformin hydrochloride], inactive: -0.726.
Take `CC=CC(=O)N(CC)c1ccccc1C` [Crotamiton]: the “light-induced TopBP1 condensate (z-score)” value was inactive: -1.09.
`CC1=C(C)C(=O)C(C(CCCCCC(=O)O)c2ccccc2)=C(C)C1=O` (centres undefined) [Seratrodast]: the “light-induced TopBP1 condensate (z-score)” value was inactive: -1.1.
As for `CNCCc1ccccn1` [Betahistine mesylate], the “light-induced TopBP1 condensate (z-score)” value was inactive: 0.27.
As to `Nc1ccc(C(=O)O)c(O)c1` [4-aminosalicylic acid], the “light-induced TopBP1 condensate (z-score)” value is inactive: 0.727.
As to `O=C1Nc2ccc(Cl)cc2[C@@](C#CC2CC2)(C(F)(F)F)O1` [Efavirenz], the “light-induced TopBP1 condensate (z-score)” value is inactive: 0.0551.
To `CC[N+](C)(CC)CCC[n+]1c(-c2ccccc2)c2cc(N)ccc2c2ccc(N)cc21` [Propidium iodide] belongs active: -3.58; to `O=C(O)c1ccccc1Nc1cccc(C(F)(F)F)c1` [Flufenamic acid], inactive: -0.164; to `Clc1ccc(C(c2ccccc2Cl)C(Cl)Cl)cc1` (centres undefined) [Mitotane], inactive: 0.00706.
To `O=C1O[C@H]([C@@H](O)CO)C(O)=C1O` [Ascorbic acid] belongs inactive: -0.0853.
`Cc1cccc(C)c1OCC(=O)N[C@@H](Cc1ccccc1)[C@@H](O)C[C@H](Cc1ccccc1)NC(=O)[C@H](C(C)C)N1CCCNC1=O` [Lopinavir]: the “light-induced TopBP1 condensate (z-score)” value was inactive: 0.599.
Take `Nc1ccc(/N=N/c2ccccc2)c(N)n1` [Phenazopyridine hydrochloride]: the “light-induced TopBP1 condensate (z-score)” value was inactive: -0.255.
Take `CN(C)CCOC(=O)C(c1ccccc1)C1(O)CCCC1` (centres undefined) [Cyclopentolate hydrochloride]: the “light-induced TopBP1 condensate (z-score)” value was inactive: 0.437.
`CCC(=O)O[C@]1(C(=O)SCF)[C@H](C)C[C@H]2[C@@H]3C[C@H](F)C4=CC(=O)C=C[C@]4(C)[C@@]3(F)[C@@H](O)C[C@@]21C` [Fluticasone propionate]: the “light-induced TopBP1 condensate (z-score)” value was inactive: -0.0165.
Take `OCCN1CCN(CC/C=C2/c3ccccc3Sc3ccc(Cl)cc32)CC1` [Zuclopenthixol dihydrochloride]: the “light-induced TopBP1 condensate (z-score)” value was inactive: -0.966.
Consider `Nc1nc(/C(=C/CC(=O)O)C(=O)N[C@@H]2C(=O)N3C(C(=O)O)=CCS[C@H]23)cs1` [Ceftibuten], for which the “light-induced TopBP1 condensate (z-score)” value is inactive: -1.27.
Regarding `CCc1nn(CCCN2CCN(c3cccc(Cl)c3)CC2)c(=O)n1CCOc1ccccc1` [Nefazodone hydrochloride], the “light-induced TopBP1 condensate (z-score)” value was inactive: -0.145.
`CCCNC(C)(C)COC(=O)c1ccccc1` [Meprylcaine hydrochloride]: the “light-induced TopBP1 condensate (z-score)” value was inactive: 0.755.
On to `CC(NCCc1ccc(O)cc1)C(O)c1ccc(O)cc1` (centres undefined) [Ritodrine hydrochloride], for which the “light-induced TopBP1 condensate (z-score)” value is inactive: 1.34.
To `C[N+](C)(CCOc1ccccc1)Cc1ccccc1.O=C([O-])c1cc2ccccc2cc1O` [Bephenium hydroxynaphthoate] belongs inactive: -0.589; to `CCC1(C)CC(=O)NC1=O` (centres undefined) [Ethosuximide], inactive: 0.0465; to `NC1CCN(c2c(F)cc3c(=O)c(C(=O)O)cn(C4CC4)c3c2Cl)C1` (centres undefined) [Clinafloxacin], inactive: -0.309.
Take `O=[N+]([O-])c1ccc(O)c2ncccc12` [Nitroxoline]: the “light-induced TopBP1 condensate (z-score)” value was inactive: 0.749.
With `CCCc1nn(C)c2c(=O)[nH]c(-c3cc(S(=O)(=O)N4CCN(C)CC4)ccc3OCC)nc12` [Sildenafil], the “light-induced TopBP1 condensate (z-score)” value was inactive: -0.947.
`CC(=O)Oc1ccc(C(c2ccc(OC(C)=O)cc2)c2ccccn2)cc1` [Bisacodyl]: the “light-induced TopBP1 condensate (z-score)” value is inactive: 0.512.
With `CCOC(=O)CC(=O)N1CCSC1COc1ccccc1OC` (centres undefined) [Moguisteine], the “light-induced TopBP1 condensate (z-score)” value is inactive: 0.754.
To `O=C(O)CCC(=O)c1ccc(-c2ccccc2)cc1` [Fenbufen] belongs inactive: 0.416.
Consider `CN1CCN2c3ccccc3Cc3ccccc3C2C1` (centres undefined) [Mianserine hydrochloride], for which the “light-induced TopBP1 condensate (z-score)” value is inactive: 0.926.
To `CCCCc1ncc(/C=C(\Cc2cccs2)C(=O)O)n1Cc1ccc(C(=O)O)cc1` [Eprosartan mesylate] belongs inactive: -0.194.

Source of the values: the supplement of paper PMC12582362.
